# Results as given in publication PMC4336329 (PLoS ONE, 2015).
# Screen size: about 310,000 compounds; about 14,000 (4.5%) showed an effect of 50% or more. The effect is printed as a negative number. Some of the results follow.
# Molecular target: human ether-à-go-go-related gene (hERG) potassium channel (human, UniProt Q12809)
# Test: primary screen, population patch clamp on CHO cells stably expressing hERG
# 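Further: peak tail current of the secondary pulse compared with the same well before compound.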
# Sequence of human ether-à-go-go-related gene (hERG) potassium channel (Q12809 whole entry, looked up): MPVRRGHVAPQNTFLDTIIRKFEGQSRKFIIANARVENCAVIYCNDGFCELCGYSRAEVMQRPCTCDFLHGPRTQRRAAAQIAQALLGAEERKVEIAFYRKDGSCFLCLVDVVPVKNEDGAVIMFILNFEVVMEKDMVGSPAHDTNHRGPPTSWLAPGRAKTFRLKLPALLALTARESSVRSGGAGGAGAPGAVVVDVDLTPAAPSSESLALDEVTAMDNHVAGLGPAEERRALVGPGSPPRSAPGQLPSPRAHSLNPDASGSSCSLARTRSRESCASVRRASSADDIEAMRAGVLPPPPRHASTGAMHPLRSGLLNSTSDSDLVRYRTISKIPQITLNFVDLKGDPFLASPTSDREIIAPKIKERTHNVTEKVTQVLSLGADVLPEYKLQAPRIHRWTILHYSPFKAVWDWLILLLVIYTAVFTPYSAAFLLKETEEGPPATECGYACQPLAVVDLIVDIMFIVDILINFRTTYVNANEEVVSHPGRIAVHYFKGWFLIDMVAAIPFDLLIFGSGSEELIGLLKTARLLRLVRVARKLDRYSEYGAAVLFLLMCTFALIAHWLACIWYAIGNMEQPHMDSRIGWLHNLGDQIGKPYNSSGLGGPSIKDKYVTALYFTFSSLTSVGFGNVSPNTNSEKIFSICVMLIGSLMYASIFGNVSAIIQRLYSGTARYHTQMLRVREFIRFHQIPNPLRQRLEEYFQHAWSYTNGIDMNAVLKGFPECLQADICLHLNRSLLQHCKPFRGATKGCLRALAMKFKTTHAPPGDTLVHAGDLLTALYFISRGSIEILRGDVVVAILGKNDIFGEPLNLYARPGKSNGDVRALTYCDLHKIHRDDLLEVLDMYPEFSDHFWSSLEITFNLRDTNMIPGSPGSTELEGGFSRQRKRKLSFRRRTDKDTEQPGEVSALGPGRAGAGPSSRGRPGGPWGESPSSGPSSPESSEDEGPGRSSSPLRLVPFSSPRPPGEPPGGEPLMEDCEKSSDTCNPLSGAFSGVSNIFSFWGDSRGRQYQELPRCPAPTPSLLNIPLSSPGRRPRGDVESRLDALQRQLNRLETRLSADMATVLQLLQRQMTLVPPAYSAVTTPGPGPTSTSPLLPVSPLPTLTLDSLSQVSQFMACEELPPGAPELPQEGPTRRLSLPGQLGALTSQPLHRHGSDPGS
row,Structure (SMILES),"hERG current change (%, negative = inhibition) at 10uM [%]"
1,CC1(C)C[C@H]2C=C(C=O)[C@]3(C=O)C[C@]3(C)[C@H]2C1,-20.1
2,O=C(CN1C(=O)c2cccc3cccc1c23)NCc1cccnc1,2.05
3,O=C1c2cccc3cccc(c23)C(=O)N1c1ccc2ncccc2c1,16.9
4,C/C(=N\NC(=O)c1ccc(Cn2cc([N+](=O)[O-])cn2)o1)c1cccc(NC(=O)C(C)C)c1,-8.21
5,COc1ccccc1NC1=C(Cl)C(=O)OC1OC(=O)c1ccco1 (stereo not shown),2
6,COc1cc(C2C(C#N)=C(N)Oc3c2ccc2ccccc32)ccc1OCC(=O)Nc1ccc(C)cc1 (stereo not shown),14.9
7,COc1cc(-c2ccc(NC(=O)NC3CC3)c(OC)c2)ccc1NC(=O)NC1CC1,27.9
8,CC(=O)/C(=C/Nc1ccc(Oc2ccccc2)cc1)c1ccccc1,5.91
9,CCOc1cc(C(N)=O)cc(Cl)c1OCc1ccccc1,14.8
10,Cc1ccc(C(=O)NCC(=O)Nc2ccc(F)c(F)c2F)cc1,25
11,Cc1c(-c2cc(C(=O)O)no2)cnn1C,32.4
12,Cc1ccccc1Nc1nc(N)nc(COc2ccc(C#N)cc2)n1,-5.4
13,CSc1oc(-c2ccco2)nc1S(=O)(=O)c1ccc(F)cc1,-6.22
14,COc1ccc(-n2c(C)nc3cc(C(=O)O)ccc32)cc1,0.926
15,O=C(NNC(=O)C1CCCCC1)C(=O)NC1CCCCC1,0.875
16,O=C(NCC1CCCO1)/C(=C\c1cccs1)NC(=O)c1ccccc1 (stereo not shown),8.62
17,COCCCNC(=S)NNC(=O)c1csc2ccccc12,8.78
18,CCOC(=O)C1CCCCN1Cc1ccc(-c2ccccc2)cc1 (stereo not shown),16
19,COc1ccc(CNC(=O)c2cc3ccccc3o2)cc1OC,16.4
20,CCOC(=O)c1oc2cc(O)ccc2c(=O)c1-c1ccc(OC)cc1,5.43
21,CCNc1ccc(Br)cc(C(=O)/C=C/c2ccc(Cl)cc2Cl)c1=O,8.28
22,COc1ccc(-c2cc(C(=O)N(C)Cc3cccc(OC)c3OC)c3ccccc3n2)cc1OC,-28.8
23,CC(=O)Nc1cccc(C(=O)Nc2ccccc2N2CCOCC2)c1,-0.962
24,CC1CCN(S(=O)(=O)c2ccc(C(=O)NCc3ccco3)cc2)CC1,-9.69
25,O=C(NNC1CC(=O)N(c2ccc3c(c2)OCCO3)C1=O)c1ccccc1 (stereo not shown),-1.58
26,Cc1ccnc(NS(=O)(=O)c2ccccc2)n1,7.3
27,Cc1ccc(S(=O)(=O)N2CCCCC2)cc1NC(=O)COC(=O)c1c(F)cccc1F,-7.29
28,O=C(NNC(=O)C12CC3CC(CC(C3)C1)C2)c1cccc([N+](=O)[O-])c1,3.97

row,Structure (SMILES),"hERG current change (%, negative = inhibition) at 10uM [%]"
1,C=CCn1c(SCC(=O)Nc2cc(OC)c(NC(=O)c3ccco3)cc2OC)nnc1-c1ccncc1,-10.2
2,O=C(c1cnc2n(c1=O)CCS2)N1CCN(c2ccc([N+](=O)[O-])cc2)CC1,-63
3,Cc1ccc(-c2nc3ncccn3c2NC2CCCCC2)o1,-37.7
4,O=C(Cc1ccc(S(=O)(=O)N2CCOCC2)s1)NCCOc1ccccc1,-8.35
5,CCOC1=NN(c2ccc(Cl)cc2)C(=O)/C1=C\N(C)C,-29.6
6,O=C(Nc1ccc(F)cc1)C1CCN(C(=O)NCc2ccccc2)CC1,-15.4
7,COc1ccc2nc(COC(=O)c3cccc([N+](=O)[O-])c3)c(C(C)=O)[n+]([O-])c2c1,12.8
8,CC(C)(C)NC(=O)NC(=O)COC(=O)c1ccc(OC(F)F)cc1,-0.651
9,C[n+]1ccc(-c2cc[n+](C)cc2)cc1.[Cl-],-0.326
10,O=C(O)c1ccc(CSc2n[nH]c(-c3ccco3)n2)cc1,3.26
11,Cn1c(=O)n(C)c2cc([N+](=O)[O-])c(N3CCN(C(=O)c4ccccc4)CC3)cc21,-36.1
12,O=C(CSc1nc2ccccc2n1CC(=O)N1CCCC1)NCc1ccc2c(c1)OCO2,-15.9
13,Cc1cc(N/N=C/c2ccc(O)cc2O)nc(N2CCOCC2)n1,-14.3
14,COc1ccc(Nc2nnc(SCC(=O)c3cc(C)n(CC4CCCO4)c3C)s2)cc1 (stereo not shown),4.82
15,COc1ccc(-c2nc(-c3ccncc3)no2)cc1,10.5
16,Cc1ccc(CN2C(=O)C(C)Oc3ccccc32)cc1 (stereo not shown),1.89
17,CC(=O)c1cccc(OCc2cc(C(=O)N(C)CCC3CCOCC3)no2)c1,-3.01
18,O=C(c1ccc2c(=O)n3c(nc2c1)CCCCC3)N1CCN(c2ccccc2F)CC1,-13.6
19,C[N+]1(C)CCc2cc3c(cc2[C@H]1[C@@H]1OC(=O)c2c1ccc1c2OCO1)OCO3.[Br-],24.4
20,COC(=O)[C@H]1C2CCC(C(=O)OC)(CC2)[C@H]1C(=O)OC,18.9
21,Cn1c(=O)n(C)c2cc([N+](=O)[O-])c(N3CCNCC3)cc21,5.58
22,COc1cccc(CC(=O)NC2CCCN(Cc3ccccc3F)C2)c1 (stereo not shown),-5.72
23,CCCc1ccc(C2C3=C(CC(C)(C)CC3=O)NC3=C2C(=O)c2ccccc23)cc1 (stereo not shown),-10.5
24,O=C(Nc1cccc(S(=O)(=O)N2CCCCCC2)c1)C1CCC1,-57.4
25,CCc1ccc(C(C(=O)NCc2ccc(OC)cc2)N(CCOC)C(=O)Cc2cccs2)cc1 (stereo not shown),-40.1
26,Cc1ccc(C(=O)Sc2cccccc2=O)cc1,-2.53
27,Cc1ccc(Cl)cc1N(CC(=O)NCc1ccc2c(c1)OCO2)S(C)(=O)=O,-29.6
